The RNAGym collection of RNA variant scans (doi:10.1101/gad.245936.114)
Variants at the floor of the assay are shown more often than the library holds them.

B1: tRNA (parent)
chain: CUCUCGGUAGCCAAGUUGGUUUAAGGCGCAAGACUUUAAUUUAUCACUACGAAAUCUUGAGAUCGGGCGUUCGACUCGCCCCCGGGAGAUUUUUUCCUCGAGCAA

Variants of: B1
Assay: nonsense suppression (GFP-seq) (ratio to wild type); higher = more function; SUP4oc tRNA, yeast GFP reporter sort-seq
How it was run: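 To measure nonsense suppression, tRNA variants from a library carrying ~3% random mutations were integrated into the yeast genome alongside RFP and a GFP ochre reporter under galactose control. Growth took place in raffinose/galactose medium supplemented with 80 mg/L adenine, followed by sorting into GFP/RFP bins and Illumina sequencing of each bin (phred ≥30). For each variant with ≥100 reads and ≥30 cells, the bin median GFP/RFP values were weighted by its estimated cell share per bin and referenced to the unmutated parent tRNA.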

Variant	nonsense suppression
C11G A14G	≤ 0.026
G10C U58G G61A G85C	≤ 0.026
G10C C11A A87G	≤ 0.026
G10A U22C C79A	≤ 0.026
C11A A33G U35A U58G G61C	≤ 0.026
C11A G19U G28A C34U G59A G86C	≤ 0.026
C11G A23G C34A C81U	≤ 0.026
C11G A23G G86A	≤ 0.026
C11G A23G C56U U57G U71C C77G	≤ 0.026
G10C C27A U57G G69A	≤ 0.026
G10U A23G	≤ 0.026
G10C C64G C80A	≤ 0.026
G10C U20C G66A C82G	≤ 0.026
G10A U20G A62C C82A	≤ 0.026
G10A A30C C34A A89G	≤ 0.026
G10C U21A G73C	≤ 0.026
G10C U70A	≤ 0.026
G10U U17A U21C C75A	≤ 0.026
C11A A87U	≤ 0.026
C11G A13U	≤ 0.026
G10U U16A	≤ 0.026
G10C U63A	≤ 0.026
C11A G66C	≤ 0.026
G10U A33C	≤ 0.026

Variant	nonsense suppression
C11A A62C C68G C80A	≤ 0.026
G10C G15A C29A	≤ 0.026
G10C G15C U20G	≤ 0.026
G10U U55C	0.0469
G10U U55A	≤ 0.026
G10U G15U A60C G69C A74U	≤ 0.026
C11G A54C G65A	≤ 0.026
C11A A24G G66U C68G U71A	≤ 0.026
G10U C27A A31U U55G U57G G85U	≤ 0.026
G10A U21G G59U G61U A62C	≤ 0.026
G10U G61C	≤ 0.026
C11A G26C G32U	≤ 0.026
G10C G25C	≤ 0.026
G10C G15U A23U C56U	≤ 0.026
G10C U57A G86A	≤ 0.026
C11A A23G U63G	≤ 0.026
C11A A30U	≤ 0.026
G10C A60G C68G C77G	≤ 0.026
C11A G15A A31C C79G	≤ 0.026
G10U G15A A33G	≤ 0.026
G10U U21C A54U U58G	≤ 0.026
G10U G15C A23G G67C	≤ 0.026
G10U A13C G18A G26C G84C	≤ 0.026
G10C U35A C82G	≤ 0.026

Variant	nonsense suppression
C11G A89C	≤ 0.026
C11G A31U U71A C72A A74C C81A C82U	≤ 0.026
G10C G19U A31C G61A C68U C80G	≤ 0.026
G10C G85C	≤ 0.026
G10A C12U A13U C75A	≤ 0.026
G10C A14G G32C C80A A87G	≤ 0.026
G10A C12G A74G	≤ 0.026
C11A A23G C79G	≤ 0.026
G10A U16G U76C	≤ 0.026
G10A U16G A87G	≤ 0.026
C11A A30U C72G	≤ 0.026
G10C A14U	≤ 0.026
C11G A23C G59C G78U	≤ 0.026
C11A G26C	≤ 0.026
C11A G26U	≤ 0.026
C11A U55A C56G	≤ 0.026
C11G A31G C68A U76C G88A	≤ 0.026
G10U U17C U22A	≤ 0.026
G10C C83G A89C	≤ 0.026
G10C A23U U58A G67A	≤ 0.026
G10U G84A	≤ 0.026
G10A U55A C56A	≤ 0.026
G10C G18C C56G G61C	≤ 0.026
G10U G26U G73C	≤ 0.026

Variant	nonsense suppression
G10C G61A G66C C68U C75U	≤ 0.026
C11A G73U	≤ 0.026
G10C C29A U76A	≤ 0.026
C11A A13G A30U C81U	≤ 0.026
C11A G18U U57C C68G	≤ 0.026
G10U A14C U16G G32C G59C	≤ 0.026
G10A C11G U76G	≤ 0.026
G10C U17A G26U U35C U58G	≤ 0.026
C11A C79A	≤ 0.026
G10U C12A C34A	≤ 0.026
C11A C27G	≤ 0.026
G10C A13U G67U G78U	≤ 0.026
C11A G32U U76G C77G	≤ 0.026
C11A U70G	≤ 0.026
C11A G59A G61U	≤ 0.026
G10C C82G	≤ 0.026
G10C C75A A87C	≤ 0.026
C11A C56G	≤ 0.026
C11A G15C A23U C83U G84A	≤ 0.026
G10A G69A	≤ 0.026
G10C C12G U16C U21C	≤ 0.026
C11A A60U	≤ 0.026
C11A G61C	≤ 0.026
C11A C12U G59A U71A	≤ 0.026

Variant	nonsense suppression
G10U A14U G25C	≤ 0.026
G10U U70C C80G	≤ 0.026
G10U C64A G85C	≤ 0.026
G10C C68G U71C	≤ 0.026
G10U A54C G86C	≤ 0.026
G10A G61C U70C U71C G85A	≤ 0.026
G10A C11U	≤ 0.026
G10C G66U	≤ 0.026
G10A A31U	≤ 0.026
G10C C11U U35G A54U A62C U70A G78U C83U	≤ 0.026
C11A G86C	≤ 0.026
C11A G86U	≤ 0.026
G10A C27G C34U	≤ 0.026
G10U C11U U63A C82A	≤ 0.026
C11A U71G A74C A87G	≤ 0.026
C11A G25U	≤ 0.026
C11A G18C G66C G67A U71A A87G	≤ 0.026
G10A A62C U71C C83G	≤ 0.026
G10A C12U G18U	≤ 0.026
G10A A60C	≤ 0.026
G10U G18U G78C	≤ 0.026
C11A A89G	≤ 0.026
C11A C81U	≤ 0.026
G10A C81A C83G	≤ 0.026

Variant	nonsense suppression
G10C G28U U63A C75G	≤ 0.026
G10A G88C	≤ 0.026
C11A U57C C64G	≤ 0.026
G10U C12A C80A	≤ 0.026
G10C A30C C82U	≤ 0.026
G10U A14C C34U	≤ 0.026
G10U U16G G32U A87C	≤ 0.026
G10A G84C	≤ 0.026
G10C G73C	≤ 0.026
G10C G73U	≤ 0.026
G10A U35A A54C U76G	≤ 0.026
G10C G32U C82G	≤ 0.026
G10U A24U C27U	≤ 0.026
G10C C34A C56A	≤ 0.026
G10C A13C U17G U20A C64U G78A	≤ 0.026
G10U U57G G66U U76A	≤ 0.026
G10U G86A	≤ 0.026
G10U U21C	≤ 0.026
G10C G18A A24G G69C	≤ 0.026
G10U C29U A54C U70C	≤ 0.026
C11A A23U A24G C81U	≤ 0.026
G10C U57C	≤ 0.026
G10C U57A	≤ 0.026
C11A G26U C34A	≤ 0.026

Variant	nonsense suppression
G10U G19U G67C	≤ 0.026
C11A U17C C34A	≤ 0.026
G10C C11U U70A	≤ 0.026
G10U U55A G67C	≤ 0.026
C11G A23G C64G A87C	≤ 0.026
G10A U76A	≤ 0.026
G10A G15U	≤ 0.026
G10C U17G G59C	≤ 0.026
G10U A60C G61A C72A	≤ 0.026
G10U G67U	≤ 0.026
G10U C72G	≤ 0.026
G10C G32C C64G	≤ 0.026
C11A A14G U63C	≤ 0.026
C11A U70A C72U	≤ 0.026
G10U G61A C81U	≤ 0.026
G10U C11G	≤ 0.026
G10A A60G C82G	≤ 0.026
C11A U17A U20A C34U A54C	≤ 0.026
G10A G65A	≤ 0.026
C11A A33G G66C U76C	≤ 0.026
C11A U71C A89G	≤ 0.026
G10C G65C U76G	≤ 0.026
G10A A30C C81A	≤ 0.026
